Reference: PubChem BioAssay AID1240 (Sanford-Burnham Center for Chemical Genomics, 2008)
The whole screen tested about 50,000 compounds, of which about 800 (1.6%) showed an effect of 50% or more. This is one part of the list.

molecular target: Bcl-2-like protein 10 (Homo sapiens) (UniProt Q9HD36); assay: TR3 peptide-Bcl-B binding displacers, biochemical primary FP assay, phenotype converters (AID 1240); details: GST-Bcl-B / FITC-TR3 peptide fluorescence polarization; stronger effect = higher value; compound at 3.75 mg/L;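 also: 0% = Bcl-B with tracer peptide and DMSO and 100% = tracer peptide lacking Bcl-B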
UniProt Q9HD36, sequence (Q9HD36 whole entry, looked up): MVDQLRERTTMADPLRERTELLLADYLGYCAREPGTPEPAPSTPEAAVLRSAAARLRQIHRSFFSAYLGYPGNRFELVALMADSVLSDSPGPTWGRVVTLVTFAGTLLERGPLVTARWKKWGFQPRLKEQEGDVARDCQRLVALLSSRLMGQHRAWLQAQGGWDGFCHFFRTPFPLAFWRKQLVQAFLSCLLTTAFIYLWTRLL

| SMILES | displacement |
| --- | --- |
| O=C(/C=C/c1ccccc1)Nc1ccc(Cl)c([N+](=O)[O-])c1 | 10.4% |
| C=CCOc1ccc(/C=C2\SC(=O)NC2=O)cc1OC | 3.2% |
| CCOc1ccc(N2C(=O)NC(=O)/C(=C\c3ccc(OCC)c(Cl)c3)C2=O)cc1 | 5.6% |
| O=C(N/N=C/c1ccc(Br)c([N+](=O)[O-])c1)c1cccs1 | 113% |
| Cc1ccc(S(=O)(=O)Nc2ccccn2)cc1C | 20.4% |
| O=C1/C(=C\c2ccc(C(F)(F)F)cc2)SC(=S)N1c1cccc(Cl)c1 | 17.1% |
| N#C/C(=C\c1ccco1)C(=O)NCc1ccccc1 | 9.9% |
| Cn1c2c(c3cc([N+](=O)[O-])ccc31)CCCC2=O | 11.9% |
| COc1ccc(S(=O)(=O)N(CC(=O)N2CCCC2)c2ccc(C)cc2)cc1OC | -2.4% |
| CC(=O)Oc1ccc(-c2cccc(C(=O)NCCCO)c2)cc1 | 9.3% |
| CC1=C(C(=O)OCCc2ccccc2)C(c2cccc([N+](=O)[O-])c2)CC(=O)N1 (configuration not stated) | -6.7% |
| Cc1cccc(-n2c(C)cc(/C=N/NC(=O)c3ccccn3)c2C)c1 | -22.1% |
| CCOC(=O)C1C2C(=O)N(c3ccc(C)cc3C)C(=O)C12 (configuration not stated) | 4.7% |
| CC(NC(=O)C(=O)NCCN1CCN(C(=O)c2ccc([N+](=O)[O-])cc2)CC1)c1ccccc1 (configuration not stated) | 8.5% |
| CC1=C(C(=O)OCCc2ccccc2)C(c2ccccc2Cl)CC(=O)N1 (configuration not stated) | -7.2% |
| CCc1ccc(NC(=O)C2CC(=O)N(C3CCCCC3)C2)cc1 (configuration not stated) | -0.2% |
| CCN1C(=O)/C(=C\c2ccc(OC(C)=O)cc2)SC1=S | -7% |
| O=C(NC(=S)Nc1ccc2oc(-c3ccc(-c4ccccc4)cc3)nc2c1)c1ccco1 | 24.1% |
| O=C(Nc1ccc(Cl)cc1Cl)c1ccccc1F | 0.8% |
| O=C(CCNc1ccc(Cl)c(Cl)c1)c1cccs1 | -1.4% |
| Clc1cccc(C=NN2CCN(Cc3ccccc3Cl)CC2)c1 | -2.6% |
| O=C(NN(C(=O)C1CC1)c1nc2ccccc2s1)C1CC1 | -2.4% |
| Cc1ccc(NC(=O)COc2ccc(Cl)c(C)c2)c([N+](=O)[O-])c1 | 11% |
| O=C(CSc1nc2ccccc2[nH]1)Nc1ccccc1-c1ccccc1 | -7.4% |

| SMILES | displacement |
| --- | --- |
| CC(=O)c1ccc(NC(=O)/C=C/c2ccccc2)cc1 | 6.5% |
| COc1ccc(CNC(=O)CN2C(=O)c3ccccc3C2=O)cc1 | -1.9% |
| CCOc1ccc2c(c1)SCC(=O)N2 | -2.8% |
| CCOc1cc(/C=C(\C#N)c2nc3ccccc3s2)ccc1O | 0% |
| Cc1ccc(C2CC(C(F)(F)F)n3ncc(C(=O)Nc4ccccc4C(F)(F)F)c3N2)cc1 (configuration not stated) | -1.8% |
| COc1ccc(Cc2ccc(OC)cc2)cc1 | 20.4% |
| O=C(Nc1ccc(Cl)c(Cl)c1)Nc1nnc(-c2ccccc2I)s1 | -1.9% |
| CCC(=O)Nc1sc(Cc2ccccc2)c(C)c1C(N)=O | -4.5% |
| O=C(c1ccccc1)c1ccc(C(=O)N(CCCCN2C(=O)c3ccccc3C2=O)c2ccc(F)cc2F)cc1 | 8.6% |
| CCC(Oc1ccccc1)C(=O)Nc1nc2ccc(C)cc2s1 (configuration not stated) | 14.5% |
| CC1CCC2(CC1)C(C#N)=C1SCCCN1C(=O)C2C#N (configuration not stated) | -3.9% |
| Cc1ccc(OCCNC(=O)Cc2cccc3ccccc23)cc1C | -14.6% |
| COc1ccc(C2/C(=C(/O)c3ccccc3)C(=O)C(=O)N2CC2CCCO2)c(OC)c1 (configuration not stated) | 5.5% |
| CC(=O)C1=C(O)C(=O)N(CCN(C)C)C1c1ccc(F)cc1 (configuration not stated) | -8.3% |
| COc1ccc(N2C(=O)NC(=O)/C(=C\c3c(OC)ccc4ccccc34)C2=O)cc1 | 6.7% |
| C/C(NCCCN1CCOCC1)=C(\C#N)C(=O)NCc1ccccc1 | -12.7% |
| CCOC(=O)C1=C(C)NC(C)=C(C(=O)OC)C1c1ccccc1 (configuration not stated) | 3.3% |
| CCOC(=O)c1ccc(N2NC(=O)/C(=C/c3cccc([N+](=O)[O-])c3)C2=O)cc1 | 8.9% |
| COC(=O)c1c(NC(=O)c2ccc(C)c(C)c2)sc2c1CCCCC2 | -7% |
| Ic1ccc(-c2nc(-c3ccccc3)no2)cc1 | 7.6% |
| O=C(O)C(c1ccccc1)N1C(=O)c2cccc3cccc(c23)C1=O (configuration not stated) | 14.7% |
| COc1cc(C(=S)N2CCOCC2)ccc1OS(=O)(=O)c1ccc(C)cc1 | 3.9% |
| Cc1ccc(NC(=O)COc2ccc(Br)cc2)c(C)c1 | 4.4% |
| Cc1c(OCC(=O)c2ccccc2)ccc2c3c(c(=O)oc12)CCC3 | -5.1% |

| SMILES | displacement |
| --- | --- |
| Cc1ccccc1CNC(=O)c1ccc(Cl)cc1 | -0.7% |
| COc1ccc(N(CC(=O)N2CCOCC2)S(C)(=O)=O)cc1Cl | -6.4% |
| Cc1ccc(OCC(O)CN2CC(C)OC(C)C2)cc1C (configuration not stated) | 6.3% |
| COc1cccc(C(=O)/C=C/c2ccc(SC)cc2)c1 | -5.8% |
| Cc1cccc(/C=N\NC(=O)c2ccccc2Cl)c1O | 35.7% |
| Cc1cccc(-c2nnc(-c3ccco3)o2)c1 | 2.1% |
| CCCOc1ccc(C(=O)N2CCCCC2C)cc1 (configuration not stated) | 0.7% |
| CC(C)(C)NC(=O)CN(c1cccc(C(F)(F)F)c1)S(C)(=O)=O | -2.2% |
| COc1ccc2oc(=O)c(C(C)=O)cc2c1 | 20.4% |
| COc1cccc(/C=C2/SC(=O)N(CNc3ccc(Br)cc3C)C2=O)c1 | 9% |
| Nc1nnc(SCC(=O)N2c3ccccc3Sc3ccccc32)s1 | -2% |
| O=C(CSc1ncccn1)NCCc1ccccc1 | 3.9% |
| Nc1nnc(CC(=O)N/N=C/c2cc3c(cc2Br)OCO3)s1 | 22% |
| COc1ccc(/C=C/C(=O)c2cccc([N+](=O)[O-])c2)cc1 | 14.9% |
| COc1cc(/C=N/NC(=O)C(=O)N2CCCCCC2)ccc1O | 0% |
| CNC(=O)/C(=C/c1ccc(-c2ccc(Cl)cc2)o1)NC(=O)c1ccc(Cl)cc1 | -5.1% |
| c1ccc(-n2ncc3c(NCc4ccco4)ncnc32)cc1 | 30.7% |
| CCOC(=O)c1c(NC(=O)CN2CCN(C)CC2)sc2c1CCC2 | 8.4% |
| O=[N+]([O-])c1ccc(C2Nc3ccc(OC(F)(F)F)cc3C3C=CCC32)cc1 (configuration not stated) | 12.9% |
| COc1ccc(OC)c(CN2CCN(Cc3ccccc3OC)CC2)c1 | 7.3% |
| O=C(Cc1c(O)c2ccccc2[nH]c1=O)NCc1ccc(Cl)cc1 | 5.9% |
| O=C(CSc1nc2ccc(N3C(=O)c4ccccc4C3=O)cc2s1)Nc1ccc(F)cc1 | -15.9% |
| CC(C)(C)c1cc(C=NN2CCN(Cc3ccccc3)CC2)cc(C(C)(C)C)c1O | -8% |
| O=C(CCN1CCCCCC1)c1ccccc1 | 6.8% |
